Out of some 39,000 compounds screened, about 220 (0.56%) showed activity. The list shows a part of the results.
What follows are molecules tested on Escherichia coli K-12 BW25113 (assay: relative growth (OD600 normalised to plate interquartile mean) (fraction); higher = less growth inhibition, active = 0.2 or less). Settings: 50 µM; LB; incubation time: overnight (16-24 h).
For `NCC[C@@H]1CC[C@H](NC(=O)NC2CCCCC2)[C@H](CO)O1`, the relative growth was inactive: 0.996.
With `C[C@@H]1CN([C@@H](C)CO)C(=O)c2ccccc2-c2ccccc2CO[C@@H]1CN(C)Cc1ccc(Oc2ccccc2)cc1` the relative growth was inactive: 1.02.
`O=C1c2ccccc2[C@](Cc2ccccc2I)(C(=O)NCc2ccccc2)[C@H](c2ccc(CO)cc2)N1C1CCCCC1` was tested, and the relative growth was inactive: 1.01.
For `CC(=O)n1cc([C@@H]2C=C(C(=O)N3CCOCC3)O[C@H](OCCCCOC(=O)NCCCCCC(=O)NO)C2)c2ccccc21`, the relative growth was inactive: 0.981.
`Cc1ncc(CO)c(/C=N/O)c1O` was tested, and the relative growth was inactive: 1.
In the case of `C[C@@H]1CN([C@H](C)CO)C(=O)Cc2cc(NC(=O)Nc3ccc4c(c3)OCO4)ccc2O[C@@H]1CN(C)C(=O)Nc1ccc(C(F)(F)F)cc1`, the relative growth is reported as inactive: 1.04.
For `COCCOC(=O)N1C(=O)[C@@]2(c3cc(C#CCC(C(=O)OC)C(=O)OC)ccc31)[C@H](C(=O)N1CCCCCCC1)[C@H]1C(=O)O[C@H](c3ccccc3)[C@H](c3ccccc3)N1[C@@H]2c1ccc(OCCO)cc1`, the relative growth was inactive: 1.03.
For `O=C(c1ccc(S(=O)(=O)N2CCOCC2)o1)N1CCC(O)CC1`, the relative growth was inactive: 1.
In the case of `O=C(NCc1ccccc1)C1=C[C@H](c2ccc3c(c2)Cc2ccccc2-3)C[C@H](OCc2ccc(CO)cc2)O1`, the relative growth is reported as inactive: 1.01.
In the case of `CS(=O)(=O)CS(=O)(=O)C1=C(N2CCOCC2)C2CCN1CC2`, the relative growth is reported as inactive: 1.
`CO[C@H]1CN(C)C(=O)c2cc(NS(=O)(=O)CC(F)(F)F)ccc2OC[C@H](C)N(Cc2cccnc2)C[C@H]1C` was tested, and the relative growth was inactive: 0.999.
`C[C@H]1CN([C@@H](C)CO)C(=O)c2cc(NC(=O)c3ccncc3)ccc2O[C@@H]1CN(C)Cc1ccc(Oc2ccccc2)cc1` was tested, and the relative growth was inactive: 0.925.
In the case of `C[C@@H]1CN([C@H](C)CO)C(=O)Cc2cc(NC(=O)C3CC3)ccc2O[C@H]1CN(C)S(=O)(=O)c1ccc(F)cc1`, the relative growth is reported as inactive: 0.99.
In the case of `Cc1ccc(S(=O)(=O)Nc2ccc3c(c2)C(=O)N([C@H](C)CO)C[C@@H](C)[C@H](CN(C)C(=O)Cc2ccccc2)OCCCC[C@@H](C)O3)cc1`, the relative growth is reported as inactive: 1.01.
With `O=C1CCC(C(=O)O)CC1` the relative growth was inactive: 0.983.
In the case of `COc1ccc(NC(=O)N(C)C[C@H]2Oc3ccc(NS(=O)(=O)c4cn(C)cn4)cc3C(=O)N([C@H](C)CO)C[C@H]2C)cc1`, the relative growth is reported as inactive: 0.984.
`C[C@H]1CN([C@@H](C)CO)C(=O)c2cccc(NC(=O)Nc3ccc4c(c3)OCO4)c2O[C@@H]1CN(C)Cc1ccc(Oc2ccccc2)cc1` was tested, and the relative growth was inactive: 1.01.
With `Cc1noc(C)c1S(=O)(=O)N(C)C[C@H]1Oc2ccc(NC(=O)Cc3cn(C)c4ccccc34)cc2CC(=O)N([C@@H](C)CO)C[C@@H]1C` the relative growth was inactive: 0.896.
For `C[C@@H]1CCCCO[C@H](CN(C)CC2CC2)[C@H](C)CN([C@H](C)CO)C(=O)c2cc(NC(=O)Nc3ccc(C(F)(F)F)cc3)ccc2O1`, the relative growth was inactive: 1.01.
With `N=C(N=C(N)N)Nc1cc(-c2cccs2)n[nH]1` the relative growth was inactive: 0.931.
In the case of `Cn1c(=O)c2c(nc(N3CCOCC3)n2CCCN)n(C)c1=O`, the relative growth is reported as inactive: 0.983.
`O=C(Cc1ccncc1)NCC[C@@H]1CC[C@H](NC(=O)C2CCOCC2)[C@H](CO)O1` was tested, and the relative growth was inactive: 1.03.
For `CCCN(C)C[C@H]1Oc2cc(C#Cc3cccc(OC)c3)ccc2S(=O)(=O)N([C@@H](C)CO)C[C@H]1C`, the relative growth was inactive: 1.01.
With `CN1C(=O)c2cc(NC(=O)c3cnccn3)ccc2OC[C@H]2O[C@@H](CC(=O)Nc3cc(F)ccc3F)CC[C@@H]21` the relative growth was inactive: 1.
In the case of `Cc1ccc(S(=O)(=O)Nc2ccc3c(c2)C(=O)N([C@H](C)CO)C[C@H](C)[C@@H](CN(C)S(=O)(=O)c2ccc(F)cc2)OCCCC[C@H](C)O3)cc1`, the relative growth is reported as inactive: 1.03.
In the case of `COc1ccccc1C(=O)Nc1ccc2c(c1)C(=O)N(C)[C@@H]1CC[C@@H](CC(=O)NCc3ccc(Cl)c(Cl)c3)O[C@H]1CO2`, the relative growth is reported as inactive: 1.08.
With `Cc1noc(C)c1S(=O)(=O)Nc1cccc2c1O[C@H](CN(C)C(=O)Nc1ccccc1)[C@H](C)CN([C@H](C)CO)C2=O` the relative growth was inactive: 1.02.
For `C[C@H]1CN([C@@H](C)CO)C(=O)c2cc(C#Cc3ccccc3F)cnc2O[C@H]1CN(C)C(=O)c1ccc2c(c1)OCO2`, the relative growth was inactive: 0.991.
With `CCCCC[C@H](O)/C=C/[C@H]1[C@H](O)CC(=O)[C@@H]1C/C=C\CCCC(=O)O` the relative growth was inactive: 0.991.
For `C=CC[C@@H](CC(=O)N[C@@H](CO)Cc1ccccc1)C(=O)NCCOC(=O)[C@@H](CC=C)CC(=O)OC(C)(C)C`, the relative growth was inactive: 1.01.
In the case of `CO[C@@H]1CN(C)C(=O)c2cc(NC(=O)C3CCOCC3)ccc2OC[C@@H](C)N(Cc2cccnc2)C[C@@H]1C`, the relative growth is reported as inactive: 0.991.
For `CN(CCOP(=O)(O)O)C(=N)N`, the relative growth was inactive: 1.01.
`C/C=C/c1ccc2c(c1)O[C@@H](CN(C)C(=O)c1ccc3c(c1)OCO3)[C@@H](C)CN([C@@H](C)CO)S2(=O)=O` was tested, and the relative growth was inactive: 0.985.
`C[C@@H]1COC(=O)[C@@H](NC(=O)OCC2c3ccccc3-c3ccccc32)CC=CC[C@@H](CC(=O)NCCO)C(=O)N1` was tested, and the relative growth was inactive: 1.04.
For `COC(=O)Cc1c(C)[nH]c2ncnn2c1=O`, the relative growth was inactive: 1.
In the case of `COc1cc2c(cc1OC)CN(C(=O)[C@@H]1[C@H]3C(=O)O[C@H](c4ccccc4)[C@H](c4ccccc4)N3[C@H](c3ccc(OCCO)cc3)[C@@]13C(=O)Nc1ccc(C#CC4=CCCCC4)cc13)CC2`, the relative growth is reported as inactive: 1.07.
`C[C@H]1CN([C@@H](C)CO)S(=O)(=O)c2ccc(C#CC3(O)CCCC3)cc2O[C@H]1CN(C)C(=O)Cc1cccnc1` was tested, and the relative growth was inactive: 0.927.
In the case of `C[C@H]1CN([C@@H](C)CO)C(=O)Cc2cc(NC(=O)Cn3cnnn3)ccc2O[C@H]1CN(C)S(C)(=O)=O`, the relative growth is reported as inactive: 0.989.
With `Cc1noc(C)c1NC(=O)N(C)C[C@H]1Oc2ccc(NC(=O)Nc3cccc4ccccc34)cc2C(=O)N([C@H](C)CO)C[C@@H]1C` the relative growth was inactive: 1.01.
With `CC(C)NC(=O)Nc1cccc2c1O[C@@H](CN(C)Cc1ccc(-c3ccccc3)cc1)[C@@H](C)CN([C@@H](C)CO)C2=O` the relative growth was inactive: 1.02.
In the case of `CCCN(C)C[C@H]1OCCCC[C@H](C)Oc2ccc(NC(=O)C3CCCCC3)cc2C(=O)N([C@H](C)CO)C[C@H]1C`, the relative growth is reported as inactive: 0.97.
For `CN1CCN(C(=O)C[C@H]2C=C[C@@H](NC(=O)c3ccc4c(c3)OCO4)[C@H](CO)O2)CC1`, the relative growth was inactive: 0.998.
For `COc1ccc(S(=O)(=O)N(C)C[C@H]2OCc3cnnn3CCCC(=O)N([C@H](C)CO)C[C@H]2C)cc1`, the relative growth was inactive: 0.995.
For `C[C@H](CO)N1C[C@H](C)[C@H](CN(C)C(=O)Nc2ccc3c(c2)OCO3)OCc2cn(nn2)CCCC1=O`, the relative growth was inactive: 1.02.
For `C[C@H](CO)N1C[C@H](C)[C@H](CN(C)C(=O)Nc2cccc3ccccc23)Oc2c(NS(=O)(=O)c3ccc(Cl)cc3)cccc2C1=O`, the relative growth was inactive: 1.02.
In the case of `CC(C)(C)[C@H]1COC(=O)[C@@H](NC(=O)OCC2c3ccccc3-c3ccccc32)CC=CC[C@H](CC(=O)N(CCO)Cc2ccccc2)C(=O)N1`, the relative growth is reported as inactive: 1.01.
With `C[C@@H]1CN([C@H](C)CO)C(=O)Cc2cc(NC(=O)Nc3ccc(F)cc3)ccc2O[C@@H]1CN(C)Cc1ccc(Cl)c(Cl)c1` the relative growth was inactive: 1.02.
`C[C@@H]1CN([C@@H](C)CO)S(=O)(=O)c2ccc(C#CC3CCCC3)cc2O[C@H]1CN(C)C(=O)Cc1ccncc1` was tested, and the relative growth was inactive: 0.967.
For `C[C@@H]1CCCCO[C@@H](CN(C)C(=O)NC2CCCCC2)[C@H](C)CN([C@H](C)CO)C(=O)c2cc(NC(=O)C3CCCCC3)ccc2O1`, the relative growth was inactive: 1.01.
For `C[C@H](CO)N1C[C@H](C)[C@H](CN(C)C(=O)NC2CCCCC2)Oc2c(NC(=O)c3ccc(-c4nccs4)cc3)cccc2C1=O`, the relative growth was inactive: 0.999.
For `COc1ccc(NC(=O)Nc2ccc3c(c2)C(=O)N([C@@H](C)CO)C[C@@H](C)[C@H](CN(C)C(=O)Nc2ccc(OC)cc2)OCCCC[C@@H](C)O3)cc1`, the relative growth was inactive: 1.
`C[C@@H]1CCCCO[C@@H](CN(C)Cc2ccc(C(=O)O)cc2)[C@@H](C)CN([C@@H](C)CO)C(=O)c2cc(NC(=O)c3ccccc3)ccc2O1` was tested, and the relative growth was inactive: 1.01.
With `C[C@H]1CN([C@@H](C)CO)S(=O)(=O)c2ccc(C#CCC3CCCC3)cc2O[C@H]1CN(C)C(=O)CN(C)C` the relative growth was inactive: 0.953.
`C[C@@H]1CN([C@@H](C)CO)C(=O)c2cc(NC(=O)c3ccccc3)ccc2O[C@@H](C)CCCCO[C@@H]1CN(C)S(=O)(=O)c1ccc(F)cc1` was tested, and the relative growth was inactive: 1.01.
In the case of `C[C@@H]1CN([C@@H](C)CO)C(=O)c2cc(NC(=O)Nc3ccc4c(c3)OCO4)ccc2O[C@H]1CN(C)Cc1ccc(-c2ccccc2)cc1`, the relative growth is reported as inactive: 0.991.
In the case of `Cc1c(C(N)=O)nnn1-c1ccc(F)cc1`, the relative growth is reported as inactive: 0.984.
With `Cc1ccc(S(=O)(=O)N(C)C[C@@H]2OCCCC[C@H](C)Oc3ccc(NS(=O)(=O)c4ccc(Cl)cc4)cc3C(=O)N([C@H](C)CO)C[C@@H]2C)cc1` the relative growth was inactive: 0.996.
`O=C(NC1CCCCC1)[C@@H]1C(c2ccc(Cl)cc2)=C(S(=O)(=O)c2ccccc2)C(=O)N1Cc1ccc(-c2ccccc2)cc1` was tested, and the relative growth was inactive: 1.03.
With `C[C@@H]1CN([C@@H](C)CO)C(=O)c2cc(NC(=O)Nc3cccc4ccccc34)ccc2O[C@@H](C)CCCCO[C@@H]1CN(C)Cc1ccc(C(=O)O)cc1` the relative growth was inactive: 1.01.
For `C[C@H](CO)N1C[C@H](C)[C@H](CN(C)Cc2ccc(Oc3ccccc3)cc2)Oc2c(NC(=O)C3CCCCC3)cccc2C1=O`, the relative growth was inactive: 1.
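Further: static incubation at 37 °C against the wild-type strain, values averaged over two biological replicates.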
